Data: the supplement of paper PMC4967469
The IC50 comes from the fitted curve, where viability falls to half of the control; where the fit passes the top or lowest dose, that dose stands as a limit. For AUC the same curve is integrated over the 256-fold range of doses and scaled to a fraction; values near 1 show little effect. For some assays here: The top dose, if marked as inferred, comes from the curve model; the source does not state it. For some assays here: Drugs with an entry number were screened twice under separate entries, and the two screens often disagree.

Columns and labels:
Assay in all cases: Viability of human cancer cell lines after 72 h of drug (GDSC screen)
JNK-9L = compound: Fc1cc(-c2ccnc(Nc3ccc(-n4cnc(N5CCOCC5)n4)cc3)n2)cc(N2CCOCC2)c1 [JNK-9L]; conditions: top dose 5.12 µM; top dose inferred
Experimental: (§1)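 Human cancer cell lines in 384-well plates, medium with 10% serum, drug for 72 h over a 256-fold dose range (nine 2-fold or five 4-fold steps up to the top dose). Adherent lines were fixed and stained with the nucleic acid dye Syto60, suspension lines read with resazurin; signal relative to control wells, capped at 0 and 100%. One two-parameter sigmoid per drug and line, fitted in a mixed model over all curves with the slope shared within a line.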

CUDC-101 = compound: C#Cc1cccc(Nc2ncnc3cc(OC)c(OCCCCCCC(=O)NO)cc23)c1 [CUDC-101]; conditions: top dose 5.12 µM; top dose inferred
Experimental: as §1

RDEA119 = compound: COc1cc(F)c(F)c(Nc2ccc(I)cc2F)c1NS(=O)(=O)C1(C[C@H](O)CO)CC1 [RDEA119]; conditions: top dose 5 µM, top dose inferred
Experimental: as §1

5-Fluorouracil = compound: O=c1[nH]cc(F)c(=O)[nH]1 [5-Fluorouracil]; conditions: top dose 32 µM; top dose inferred
Experimental: as §1

QS11 = compound: OC[C@H](Cc1ccccc1)Nc1nc(Oc2ccc3c(c2)CCC3)nc2c1ncn2Cc1ccc(-c2ccccc2)cc1 [QS11]; conditions: top dose 10.24 µM
Experimental: as §1

AC220 = compound: CC(C)(C)c1cc(NC(=O)Nc2ccc(-c3cn4c(n3)sc3cc(OCCN5CCOCC5)ccc34)cc2)no1 [AC220]; conditions: top dose 1.024 µM; top dose inferred
Experimental: as §1

OSU-03012 = compound: NCC(=O)Nc1ccc(-n2nc(C(F)(F)F)cc2-c2ccc3c(ccc4ccccc43)c2)cc1 [OSU-03012]; conditions: top dose 16 µM; top dose inferred
Experimental: as §1

Row | Cell Line | AUC (JNK-9L) | AUC (CUDC-101) | IC50 (CUDC-101) [nM] | AUC (RDEA119; screen: GDSC drug entry 1014) | IC50 (RDEA119; screen: GDSC drug entry 1014) [nM] | AUC (RDEA119; screen: GDSC drug entry 1526) | IC50 (RDEA119; screen: GDSC drug entry 1526) [nM] | AUC (5-Fluorouracil) | IC50 (5-Fluorouracil) [nM] | AUC (QS11) | IC50 (QS11) [nM] | AUC (AC220) | IC50 (AC220) [nM] | AUC (OSU-03012) | IC50 (OSU-03012) [nM] | IC50 (JNK-9L) [nM]
1 | Raji (Burkitt lymphoma, suspension) | 0.572 | 0.401 | 175 | 0.99 | > 5000 | 0.963 | > 5000 | 0.863 | 24800 | 0.943 | > 10200 | 0.989 | > 1020 | 0.8 | 7180 | 
2 | Ramos-2G6-4C10 (Burkitt lymphoma, suspension) | 0.533 | 0.296 | 94.4 | 0.983 | > 5000 | 0.977 | > 5000 | 0.87 | 22800 | 0.875 | 7600 | 0.984 | > 1020 | 0.652 | 2460 | 389
3 | SAS (head and neck, adherent) | 0.74 | 0.415 | 183 | 0.811 | 3030 | 0.79 | 2510 | 0.817 | 20600 | 0.725 | 3030 | 0.98 | > 1020 | 0.71 | 4240 | 1700
4 | SAT (head and neck, adherent) | 0.623 | 0.52 | 372 | 0.701 | 1580 |  |  | 0.931 | > 32000 | 0.975 | > 10200 | 0.972 | > 1020 | 0.855 | > 16000 | 843
5 | SBC-1 (small cell lung carcinoma, suspension) | 0.938 | 0.636 | 749 | 0.989 | > 5000 | 0.987 | > 5000 | 0.728 | 8620 | 0.984 | > 10200 | 0.987 | > 1020 | 0.965 | > 16000 | > 5120
6 | SBC-3 (small cell lung carcinoma, adherent) | 0.308 | 0.292 | 88.7 | 0.982 | > 5000 | 0.93 | > 5000 | 0.502 | 2020 | 0.943 | > 10200 | 0.97 | > 1020 | 0.572 | 1540 | 98.3
7 | SCC-4 (head and neck, adherent) | 0.594 | 0.607 | 666 |  |  | 0.877 | > 5000 | 0.961 | > 32000 | 0.981 | > 10200 | 0.984 | > 1020 | 0.773 | 7450 | 608
8 | SCC-9 (head and neck, adherent) | 0.464 | 0.421 | 183 | 0.895 | > 5000 | 0.669 | 1060 | 0.83 | 28300 | 0.981 | > 10200 | 0.976 | > 1020 | 0.873 | > 16000 | 248
9 | SCC-15 (head and neck, adherent) | 0.581 | 0.483 | 283 | 0.868 | > 5000 | 0.748 | 2100 | 0.854 | > 32000 | 0.936 | > 10200 | 0.98 | > 1020 | 0.716 | 5100 | 575
10 | SCC-25 (head and neck, adherent) | 0.492 | 0.4 | 163 | 0.568 |  | 0.772 | 2180 | 0.837 | 25600 | 0.933 | > 10200 | 0.97 | > 1020 | 0.636 | 2500 | 303
11 | SCH (stomach, adherent) | 0.858 | 0.95 | > 5120 | 0.955 | > 5000 | 0.986 | > 5000 | 0.988 | > 32000 | 0.988 | > 10200 | 0.988 | > 1020 | 0.988 | > 16000 | 4740
12 | SF126 (glioma, adherent) | 0.74 | 0.698 | 1190 | 0.878 | > 5000 | 0.867 | 4960 | 0.894 | > 32000 | 0.934 | > 10200 | 0.985 | > 1020 | 0.715 | 4200 | 1630
13 | SF295 (glioma, adherent) | 0.546 | 0.675 | 1030 | 0.934 | > 5000 | 0.853 | 4410 | 0.906 | > 32000 | 0.703 | 2510 | 0.98 | > 1020 | 0.618 | 2170 | 432
14 | SH-4 (melanoma, adherent) | 0.543 | 0.825 | > 5120 | 0.39 | 132 | 0.5 | 312 | 0.95 | > 32000 | 0.875 | > 10200 | 0.951 | > 1020 | 0.744 | 7550 | 447
15 | SHP-77 (small cell lung carcinoma, semi-adherent) | 0.691 | 0.588 | 541 | 0.992 | > 5000 | 0.99 | > 5000 | 0.835 | 17900 | 0.982 | > 10200 | 0.98 | > 1020 | 0.876 | 12900 | 1020
16 | SIMA (neuroblastoma, adherent) | 0.648 | 0.692 | 1200 | 0.769 | 2130 | 0.857 | 4930 | 0.666 | 6200 | 0.917 | > 10200 | 0.968 | > 1020 | 0.73 | 4980 | 870
17 | SISO (cervix, adherent) | 0.558 | 0.711 | 1220 | 0.78 | 1960 | 0.823 | 2780 | 0.824 | 18000 | 0.891 | > 10200 | 0.984 | > 1020 | 0.775 | 6050 | 457
